# The whole screen tested about 310,000 compounds, of which about 2,200 (0.71%) showed an effect of 50% or more. Effects have a minus sign here. This is one part of the list.
# Biological target: human ether-à-go-go-related gene (hERG) potassium channel (human, UniProt Q12809)
# Assay: primary screen, population patch clamp on CHO cells stably expressing hERG
# Chain of human ether-à-go-go-related gene (hERG) potassium channel (Q12809 whole entry, looked up): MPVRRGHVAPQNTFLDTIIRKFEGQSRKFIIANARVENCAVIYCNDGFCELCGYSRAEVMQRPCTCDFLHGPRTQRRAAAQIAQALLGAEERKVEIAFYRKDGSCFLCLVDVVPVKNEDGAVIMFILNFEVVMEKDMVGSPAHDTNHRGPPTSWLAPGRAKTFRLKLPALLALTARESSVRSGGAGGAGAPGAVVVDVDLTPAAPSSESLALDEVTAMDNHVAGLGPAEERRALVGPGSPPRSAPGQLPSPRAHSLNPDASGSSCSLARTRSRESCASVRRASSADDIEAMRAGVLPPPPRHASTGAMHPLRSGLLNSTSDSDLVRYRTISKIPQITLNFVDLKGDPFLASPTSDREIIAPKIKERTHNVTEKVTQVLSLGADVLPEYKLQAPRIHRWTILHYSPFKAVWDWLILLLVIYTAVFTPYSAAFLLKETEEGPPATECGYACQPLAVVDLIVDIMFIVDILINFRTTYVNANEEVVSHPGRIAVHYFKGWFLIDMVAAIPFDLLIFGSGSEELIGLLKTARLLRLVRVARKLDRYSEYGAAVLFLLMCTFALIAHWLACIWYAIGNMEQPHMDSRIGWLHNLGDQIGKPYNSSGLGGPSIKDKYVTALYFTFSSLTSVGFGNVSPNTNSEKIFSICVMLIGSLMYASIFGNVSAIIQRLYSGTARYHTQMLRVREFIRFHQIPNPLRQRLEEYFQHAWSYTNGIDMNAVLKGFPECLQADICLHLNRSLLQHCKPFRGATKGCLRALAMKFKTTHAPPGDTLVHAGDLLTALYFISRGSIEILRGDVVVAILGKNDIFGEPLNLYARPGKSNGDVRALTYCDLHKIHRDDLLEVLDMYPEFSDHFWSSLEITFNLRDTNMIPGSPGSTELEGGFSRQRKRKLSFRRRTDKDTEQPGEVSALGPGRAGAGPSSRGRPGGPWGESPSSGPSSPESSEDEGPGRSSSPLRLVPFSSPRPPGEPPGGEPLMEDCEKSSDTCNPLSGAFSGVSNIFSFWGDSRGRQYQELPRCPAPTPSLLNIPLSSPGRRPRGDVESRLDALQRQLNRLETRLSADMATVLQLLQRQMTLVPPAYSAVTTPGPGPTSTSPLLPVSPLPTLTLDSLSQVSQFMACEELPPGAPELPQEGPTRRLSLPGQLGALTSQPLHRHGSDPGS
row,SMILES,"hERG current change (%, negative = inhibition) at 1uM [%]"
1,CC(C)(C)c1ccc(/C=N/Nc2nncn2N)cc1,-7.77
2,C[C@H](O)CC1=C[C@H](O)[C@@H](C)OC1=O,-14.7
3,COc1cccc(NC(=O)C(c2ccccc2)N2CCN(CC(=O)N3CCOCC3)CC2)c1 (stereo not shown),-14.6
4,COc1cc(OC)cc(C(=O)Nc2ccc(C(=O)NCC3CCCO3)cc2)c1 (stereo not shown),9.71
5,CC1Cc2ccccc2N1C(=O)C1CCN(S(=O)(=O)Cc2ccccc2)CC1 (stereo not shown),5.09
6,CC(C(=O)NC1=NCCS1)N1C(=O)c2ccccc2C1=O (stereo not shown),4.77
7,NC(=O)C1(N2CCCCC2)CCN(S(=O)(=O)c2ccccc2)CC1,0.32
8,N#Cc1ccccc1Cn1cc(C(=O)c2cccs2)c2ccccc21,8.98
9,CCSc1nnc(-c2cccnc2)n1Cc1ccco1,-2.58
10,O=S(=O)(NC1c2cccc3cccc(c23)C1Sc1ncccn1)c1ccccc1 (stereo not shown),31.5
11,O=C(c1ccc(S(=O)(=O)N2CCCC2)cc1)N1CCCCCC1,14.7
12,O=C(CN1C(=O)c2ccccc2S1(=O)=O)Nc1ccc(S(=O)(=O)N2CCCCC2)cc1,13.4
13,COc1cccc(-c2cc(CC3(O)CCN(CCCc4ccccc4)CC3)on2)c1,-39.3
14,O=C(COC(=O)Cc1n[nH]c(=O)c2ccccc12)NNC(=O)c1ccccc1,1.68
15,CC(=O)/C(=N/Nc1ccc(C)cc1)Sc1nnc(CCc2ccccc2)n1-c1ccccc1,3.45
16,CCc1cc2c(C)ccc(C)c2nc1SCC(=O)Nc1cc(C)on1,8.37
17,COc1ccc(NC(=O)C2CCN(C(=O)Nc3ccccc3)CC2)cc1S(=O)(=O)N(C)C,9.54
18,O=C(NCCNC(=O)c1ccccn1)c1ccccc1,13.4
19,COc1cc(NC(=O)Cc2c(C(=O)O)[nH]c3ccccc23)cc(OC)c1OC,0.394
20,O=S(=O)(Nc1nnc(C2CCCCC2)s1)c1ccc(F)cc1,-8.42
21,CN(C)C(=S)Nc1ccc(Br)cc1Cl,7.39
22,C#CCOCCOCCOCCNc1nc(N2CCN(C(=O)[C@H]([C@@H](C)CC)n3cc([C@@H](N)CC(C)C)nn3)CC2)nc(N2CCN(C(=O)[C@H](CCCCN)n3cc([C@@H](N)CO)nn3)CC2)n1.Cl,12.8
23,Cc1ccc(-c2c[n+](CC(=O)Nc3ccccc3C)c3n2CCC3)cc1.[Cl-],6.96
24,O=C(Nc1ccc(Cl)cc1C(=O)c1ccccc1)c1ccccc1,3.74
25,COc1ccc(-c2nnc(N3CCCCC3)c3ccccc23)cc1,-7.58
26,COc1cc(Cl)cc(C=O)c1OCC(=O)O,16
27,O=C(Nc1nccs1)c1cccc(N2C(=O)c3cccc4c([N+](=O)[O-])ccc(c34)C2=O)c1,0.914
28,CC1=NNC(=O)C1CC(=O)N/N=C/C(C)=C/c1ccccc1 (stereo not shown),11.3

row,SMILES,"hERG current change (%, negative = inhibition) at 1uM [%]"
1,CCN(C(=O)c1cc2cc(OC)ccc2oc1=O)c1ccccc1,15
2,C[C@]1(C(=O)NCCN2CCOCC2)C=C[C@@H](Cc2ccccc2)N1C(=O)c1ccccc1,3.41
3,COc1ccc2c(c1)OC13CCN(C)CC1C2C(C(=O)c1ccc(F)cc1)C(=O)N3 (stereo not shown),-4.16
4,Nc1ccc2oc(=O)c(-c3ccccc3)cc2c1,9.3
5,COc1ccc(CN2CCCC(C(=O)Nc3cccc(-n4cnnn4)c3)C2)c(C)c1C (stereo not shown),2.01
6,COc1cc(OC)c(C(=O)N2CCN(c3ccccn3)CC2)cc1OC,18.9
7,CCCC(c1nnnn1Cc1ccco1)N1CCN(C2CCCC2)CC1 (stereo not shown),-2.86
8,O=Cc1ccc(C(=O)O)cc1,13.6
9,Cc1cccc2cc(CN(Cc3ccccc3)C(=S)NCCCN(C)C)c(=O)[nH]c12,-2.04
10,COc1cccc(-n2c(SCC(=O)OC(C)C)nnc2-c2cccnc2)c1,10.4
11,COc1cccc(S(=O)(=O)Nc2ccc(C(=O)Nc3ccncc3)cc2)c1,6.68
12,CCC1(C)Cc2c(sc3nc(SC)[nH]c(=S)c23)CO1 (stereo not shown),5.68
13,CCc1nnc(NC(=O)c2ccc(COc3ccccc3)o2)s1,3.21
14,CCC(C)OC(=O)C1=C(C)OC23OC(N)=C(C#N)C12C(=O)c1ccccc13 (stereo not shown),6.17
15,COc1ccc(/C=N/OCC(=O)N2CCCC2)c(OC)c1,9.13
16,CCN(CC)C(=O)Oc1cc(=O)n(C)c2ccccc12,6.19
17,O=C(CSc1nnc2ccccn12)NNC(=O)c1ccc([N+](=O)[O-])cc1,5.86
18,Cc1onc(-c2c(Cl)cccc2Cl)c1C(=O)N=C(N)N1CC(C)OC(C)C1 (stereo not shown),5.85
19,COc1cc(NC(=O)C2CCN(c3cnccn3)CC2)cc(OC)c1OC,12.8
20,O=C(O)CCc1ccc(-c2ccc(Cl)cc2)o1,1.26
21,CCOc1ccc(S(=O)(=O)N2CCC(C(=O)OCc3cccc(OC)c3OC)CC2)cc1,1.27
22,CCS(=O)(=O)N1CCC(C(=O)c2ccc(Cl)cc2)CC1,-9.14
23,COCCn1c(SCC(=O)Nc2cc(C)on2)nnc1-c1ccccc1,13.9
24,O=S(=O)(Nc1ccccc1N1CCCCC1)c1cccs1,9.36
25,CCOc1cc(C2NC(=O)NC(O)(C(F)(F)F)C2C(=O)c2ccc(Cl)cc2)ccc1O (stereo not shown),11.7
26,Cc1sc2nc(C3CC3)nc(N3CCN(C(=O)c4ccc(Cl)cc4)CC3)c2c1C.Cl,-9.15
27,C=CCNC(=O)COC(=O)COc1ccc(Cl)cc1,7.74

# Reference: publication PMC4336329 (PLoS ONE, 2015)
